# Test results published in PubChem BioAssay AID1745853 (National Center for Advancing Translational Sciences (NCATS), 2022).
# The list shows a part of the results. Further columns of the screen follow, without active or inactive calls.
# Key:
# Assay in all cases: Primary Screen for Target Class Profiling of Small Molecule Inhibitors of Methyltransferases
# [1] = target: Glycine N-methyltransferase (Homo sapiens) (UniProt Q14749); conditions: purified enzyme, MTase-Glo SAH luminescence; measured here: GNMT inhibition; at 40 µM; stronger effect = lower value
# Summary of the method: (§1)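 Each enzyme was assayed with SAM and its substrate. SAH formation detected by MTase-Glo luminescence; single-point 40 uM screen[…].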
# [2] = target: Guanidinoacetate N-methyltransferase (Homo sapiens) (UniProt Q14353); conditions: purified enzyme, MTase-Glo SAH luminescence; measured here: GAMT inhibition; at 40 µM; stronger effect = lower value
# Summary of the method: as §1
# [3] = target: Histamine N-methyltransferase (Homo sapiens) (UniProt P50135); conditions: purified enzyme, MTase-Glo SAH luminescence; measured here: HNMT inhibition; at 40 µM; stronger effect = lower value
# Summary of the method: as §1
# [4] = target: Nicotinamide N-methyltransferase (Homo sapiens) (UniProt P40261); conditions: purified enzyme, MTase-Glo SAH luminescence; measured here: NNMT inhibition; at 40 µM; stronger effect = lower value
# Summary of the method: as §1
# [5] = target: Phenylethanolamine N-methyltransferase (Homo sapiens) (UniProt P11086); conditions: purified enzyme, MTase-Glo SAH luminescence; measured here: PNMT inhibition; at 40 µM; stronger effect = lower value
# Summary of the method: as §1
# On the % scale 0 is the no-effect control and ±100 the full control effect.
SMILES,"activity change, negative = inhibition [1]","activity change, negative = inhibition [2]","activity change, negative = inhibition [3]","activity change, negative = inhibition [4]","activity change, negative = inhibition [5]"
CCCn1c(=O)c2ccccc2n2c(=O)n(CC(=O)Nc3ccc(OC)c(OC)c3)nc12,-4.78%,4.96%,3.34%,1.79%,1.73%
CC(NC1CCC2(CCNCC2)CC1)c1ccc(S(C)(=O)=O)cc1 (stereo not drawn),-4.92%,-7.2%,-10.6%,-11.2%,-10.5%
CCCCS(=O)(=O)N1CC(F)(F)C[C@H]1c1nnc(C)o1,-0.354%,-3.52%,-0.827%,-9.57%,11.1%
O=C(Nc1ccccc1)c1cc2n(n1)CCN(C(=O)COc1ccccc1)C2,-6.61%,-4.72%,-1.75%,-8.72%,-3.42%
CN(C)S(=O)(=O)c1ccc2c(c1)/C(=C/c1cc3c([nH]1)CCCC3)C(=O)N2,-4.61%,7.66%,3.43%,-7.65%,-8.71%
Cc1cnc(C2CC2)n1CCNC(=O)NC1CCCCC1,-5%,-7.13%,-14.5%,-13%,5.52%
CCN(CC)C(=O)N1CCC(c2noc(COc3ccc(F)cc3)n2)C1 (stereo not drawn),-6.13%,-11.5%,-2.84%,-16.2%,-12%
COCCN1C(=O)c2c(NC(C)=O)c3cc(F)ccc3n2CC1(C)C(=O)NC1CCCC1 (stereo not drawn),2.43%,0%,3.84%,0.667%,-3.39%
CC1CCCC[C@H]2C(=O)C=C[C@H](O)[C@@H]2CC(=O)O1 (stereo partly drawn),-3.43%,1.32%,2.22%,-10.2%,1.88%
C[C@@H](O)[C@H](NC(=O)c1ccc(C#Cc2ccc(CN3CCOCC3)cc2)cc1)C(=O)NO,-3.91%,5.78%,11.3%,-10%,3.44%
CC(C)[C@H]1CCC(CO)=C[C@@H]1/C=C(\CO)C(=O)O,0%,1.37%,7.68%,-8.17%,1.92%
CC(=O)OC[C@@]12[C@@H](OC(C)=O)C[C@@H](C)[C@](C)([C@@H]3C[C@H]4C=CO[C@H]4O3)[C@H]1CCC[C@]21CO1,0.522%,3.75%,6.38%,-10.3%,-0.224%
Cc1ccsc1CCNS(=O)(=O)c1ccc2[nH]c3c(c2c1)CCCC3,-3.94%,1.6%,-8.74%,-12.8%,-4.25%
Cc1ccc(Cn2c(=O)c3ccc(C(=O)NC(C)C)cc3n3c(=O)n(CC(=O)c4ccccc4)nc23)cc1,-1.99%,0.788%,-4.55%,-0.736%,-2.68%
O=c1c2c(CO)c(-c3ccccc3)nn2ccn1Cc1cc(=O)n2ccccc2n1,-4.22%,-7.24%,0.517%,-2.59%,0.409%
CN(CCc1noc(C2CN(S(=O)(=O)c3ccccc3)C2)n1)C(=O)c1ccncc1,-1.15%,3.68%,0.779%,-0.465%,12.8%
CCn1c(=O)n(CC)c2cc(S(=O)(=O)Nc3cccc(F)c3)ccc21,0.176%,5.55%,7.52%,9.54%,1.72%
COc1ccc(OCc2cc(C(=O)NC(CO)C(C)C)no2)c2ccccc12 (stereo not drawn),-50.1%,-27.9%,-2.6%,-9.93%,-63.2%
COc1ccc(Cl)cc1C(=O)N1CC(F)(F)C[C@H]1c1nc(C)no1,-2.85%,-3.66%,-1.87%,-8.55%,-5.1%
CCCNC(=O)[C@@H]1Cc2cn(Cc3nccn3C)c3cccc(c23)[C@H](CC(C)C)N1,-14.7%,-7.48%,-6.04%,-23%,-23.4%
Cc1ccc(CN2CC[C@H](c3nc4ccc(C)cc4[nH]3)C2)cc1,-11.2%,-6.1%,-29%,-26.2%,-20.7%
O=C(NCc1nc2ccccc2c(=O)n1-c1ccc(F)cc1)Nc1ccc(Cl)c(C(F)(F)F)c1,-2.13%,-33.9%,-6.85%,-49.4%,-27%
CC(=O)Nc1c2n(c3ccccc13)CC(C)(C(=O)NC1CCCCC1)N(C1CCCCCC1)C2=O (stereo not drawn),4.27%,0%,7.04%,-0.789%,4.46%
Cc1ccc(C)c(Cn2nc3n(C(C)C)c(=O)c4ccc(C(=O)NCC(C)C)cc4n3c2=O)c1,1.19%,0%,4.22%,0.37%,0.03%
Cc1ccc(NC(=O)Cn2nc3n(CC(C)C)c(=O)c4ccc(C(=O)NC(C)C)cc4n3c2=O)cc1F,5.32%,0%,10%,4.54%,4.14%
C/C=C(\C)C(=O)O[C@H]1[C@@H](O[C@]2(COC(=O)CC(C)C)O[C@H](COC(=O)C(C)C)[C@@H](OC(C)=O)[C@@H]2O)O[C@H](COC(C)=O)[C@@H](O)[C@@H]1O,0%,-4.29%,-4.03%,-17.1%,-1.95%
CCN1C(=O)CCc2cc(NC(=O)c3ccn(CC)n3)ccc21,-11.9%,-10.8%,-8.03%,-20.5%,-15.6%

SMILES,"activity change, negative = inhibition [1]","activity change, negative = inhibition [2]","activity change, negative = inhibition [3]","activity change, negative = inhibition [4]","activity change, negative = inhibition [5]"
COC1CCN(c2cc(-c3ccsc3)nc3c(C)noc23)CC1,-24.4%,-16.8%,-21.6%,-51%,-10.4%
CC(C)N1CCCC2(CCN(C(=O)c3cc(C#N)cn3C)C2)C1=O (stereo not drawn),2.46%,-0.156%,-0.464%,1.01%,2.91%
C[C@H]1[C@H](C)CC[C@]2(C(=O)O)CC[C@]3(C(=O)O)C(=CCC4[C@@]5(C)CC[C@H](O[C@@H]6O[C@@H](C)[C@H](O)[C@@H](O)[C@H]6O)C(C)(C)C5CC[C@]43C)[C@H]12 (stereo partly drawn),-0.445%,0.013%,6.13%,-11%,1.18%
CC1CCC(NC(=O)C2(C)Cn3c(cc4occc43)C(=O)N2CCCc2ccccc2)CC1 (stereo not drawn),-4.88%,0%,5.86%,1.1%,-0.66%
COc1ccc(-c2cc3n(n2)CC(C)(C(=O)NCc2ccccc2OC)N(CCc2ccccc2)C3=O)cc1 (stereo not drawn),0.49%,2.83%,-2.96%,-0.996%,-5.73%
Cc1nc(C2CC23CCN(C(=O)Nc2ccccc2F)CC3)no1 (stereo not drawn),-0.082%,-5.47%,-0.041%,-6.85%,2.71%
CN1CCN(C(=O)c2cc(-c3ccsc3)nc3c2cnn3C)CC1,-10.9%,-8.09%,-6.38%,-13.7%,-11.1%
COc1cccc([S+](=O)([O-])N2CCN(CCn3nc4n(c3=O)CCCC4)CC2)c1,-0.602%,1.54%,2.97%,-6.1%,-14.9%
Cc1nc2c3ccccc3n3c(CCCC(=O)NCCCN(C)Cc4ccccc4)nnc3n2n1,-12.7%,5.82%,-31%,0.78%,-2.9%
CN1CCN(c2ccc(-c3noc([C@@H]4CCCN4Cc4ccccc4)n3)cn2)CC1,-3.95%,-3.68%,-12.1%,-8.18%,-0.487%
COc1ccc(C(=O)N2CCC(N3C(=O)[C@H](OC)[C@@H]3c3ccncc3)CC2)c(OC)c1,-6.69%,-5.72%,-3.19%,-12.2%,-8.71%
CCOc1cccc(C2c3cccn3-c3sc4c(c3CN2C(=O)NCCC(=O)OC)CCCC4)c1 (stereo not drawn),-5.85%,0.717%,-2.67%,-15.7%,2.07%
COc1cc(COC2OC(CO)C(O)C(O)C2O)cc(OC)c1O (stereo not drawn),0%,4.8%,1.96%,-6.74%,4.5%
C[C@@H]1C[C@@H](O)[C@@]23CO[C@@H](O)[C@@H]2CCC[C@@H]3[C@@]12C[C@@H](c1ccoc1)OC2=O,0%,3.63%,7.66%,-7.45%,3.31%
O=C(c1cc(-c2ccccc2)n[nH]1)N1CCc2c(nc(-c3ccccc3)[nH]c2=O)C1,-72.9%,-1.45%,-5.06%,-11.3%,6.53%
CN1CCCCCCN(C(=O)c2cnccn2)[C@H]2CCC[C@H]2C1=O,1.92%,3.1%,2.65%,-3.57%,13.2%
COc1ccccc1CN1C(=O)c2ccc(-c3ccccc3)n2CC1(C)C(=O)NC1CCC(C)CC1 (stereo not drawn),4.63%,0.546%,3.42%,0.245%,0.422%
c1ccc(COC2CCN(c3nccc(-c4cccnc4)n3)CC2)nc1,-11.2%,-8.46%,-8.32%,-19.5%,-4.13%
COCCCNc1nc2c(-c3cccc(Br)c3)nnn2c2ccccc12,-2.57%,0.777%,-0.752%,3.55%,-3.7%
O=C(Nc1cccc(Cl)c1)N1Cc2c(sc3c2CCCC3)-n2cccc2C1c1cccc(F)c1 (stereo not drawn),-6.97%,4.76%,-4.38%,-2.29%,-3.73%
CC[C@@]1(O)CC2CN(CCc3c([nH]c4ccccc34)[C@](C(=O)OC)(c3cc4c(cc3OC)N(C)C3[C@@](O)(C(N)=O)[C@H](O)[C@]5(CC)C=CCN6CC[C@@]43[C@@H]65)C2)C1 (stereo partly drawn),–,12.5%,–,-11.5%,-4.18%
Cn1cc(CNC(=O)c2ccc(OC3CCN(S(C)(=O)=O)CC3)c(Cl)c2)cn1,-5.52%,-8.08%,-0.83%,-9.54%,-19.6%
O=C(OC[C@H]1O[C@H](O[C@H]2CO[C@H](CO)[C@@H](O)[C@@H]2O)[C@H](O)[C@@H](O)[C@H]1O)c1ccccc1,2.08%,5.27%,2.93%,-6.74%,7.08%
CC(C)NC(=O)c1ccc2c(=O)n(C(C)C)c3nn(Cc4ccccc4)c(=O)n3c2c1,-3.48%,5.34%,0.317%,-3.38%,2.76%
COCC(=O)N(C)Cc1ccc(F)cc1,-3.3%,-1.38%,1.43%,-0.532%,-0.835%
CC(C)OCCCN1C(=O)c2ccc(-c3ccco3)n2CC1(C)C(=O)NC1CCCCCCC1 (stereo not drawn),-9.2%,-3.46%,-3.1%,-19.3%,-6.33%
